# Source: the supplement of paper PMC3334620
# In all, about 33,000 sequences were measured (“E-score (-0.5 to 0.5)”: median about -0.054, highest 2% from about 0.35 on). Some of the results follow.
# Molecular target: T1, Stb5 (UniProt P38699)
# T1 sequence: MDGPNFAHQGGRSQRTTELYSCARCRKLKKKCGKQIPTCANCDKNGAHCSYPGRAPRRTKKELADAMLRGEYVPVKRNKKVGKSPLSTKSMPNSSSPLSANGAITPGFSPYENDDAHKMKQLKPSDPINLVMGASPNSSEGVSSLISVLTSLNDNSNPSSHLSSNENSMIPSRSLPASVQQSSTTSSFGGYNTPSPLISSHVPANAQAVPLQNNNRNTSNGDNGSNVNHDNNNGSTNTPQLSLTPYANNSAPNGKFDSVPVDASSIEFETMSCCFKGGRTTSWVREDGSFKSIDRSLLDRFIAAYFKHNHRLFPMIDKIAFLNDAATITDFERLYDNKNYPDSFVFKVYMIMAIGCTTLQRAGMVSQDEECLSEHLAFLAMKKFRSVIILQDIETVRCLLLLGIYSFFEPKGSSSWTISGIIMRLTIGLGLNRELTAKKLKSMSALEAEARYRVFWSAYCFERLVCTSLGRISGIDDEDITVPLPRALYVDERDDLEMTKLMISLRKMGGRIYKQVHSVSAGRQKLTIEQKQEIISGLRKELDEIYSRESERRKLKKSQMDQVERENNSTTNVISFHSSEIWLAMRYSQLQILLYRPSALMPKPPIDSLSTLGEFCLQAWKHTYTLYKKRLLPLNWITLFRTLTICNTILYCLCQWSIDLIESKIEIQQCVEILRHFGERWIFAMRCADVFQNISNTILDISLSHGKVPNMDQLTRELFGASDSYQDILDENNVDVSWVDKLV
# Assay: PBM E-score (8-mer binding enrichment) (E-score (-0.5 to 0.5)); higher = stronger / more preferred TF binding; most listed sequences are background and not binding sites
# Details: protein concentration: 200 nM; construct: GST-full length
# Summary of the method: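 For each ungapped eight-base word taken together with its reverse complement, the Universal PBM Analysis Suite assigned an E-score. Binding data came from GST-tagged yeast transcription factors, applied at about 100-200 nM, on universal all-10-mer Agilent arrays made double-stranded by primer extension. Fluorescent anti-GST marked bound protein, and scans were normalised with masliner.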
row,Sequence,PBM E-score
1,GAGTATAA,0.115
2,TCCCTAAA,-0.0585
3,AGACGGAA,0.218
4,ACGAATTA,-0.0884
5,AAAGTGAA,-0.155
6,GGCTGGTA,-0.102
7,CCGATTCC,0.267
8,AGGTGCAG,-0.16
9,CCATCGGG,0.262
10,AGTTGTGC,-0.214
11,ATACTGGC,-0.207
12,AACGTGGT,-0.126
13,GATCCACC,-0.0814
14,AGAGCCCA,-0.22
15,GAATTCTC,0.0968
16,GCTCATAC,0.0142
17,ATGAAGAA,-0.087
18,GAAAGCCC,0.308
19,ATCAAGCA,-0.19
20,CTGCGGTC,0.246
21,TATGACGA,0.0645
22,AGTCTATG,-0.219
23,CCTTAAAA,-0.313
24,ATCCATAG,0.0827
25,CCAGTATA,-0.066

row,Sequence,PBM E-score
1,GGTGCAAC,0.154
2,GAGTCGGA,0.307
3,ACGCCGAG,0.27
4,AGCTCGCG,-0.147
5,CACGACCG,0.115
6,AGGACGCG,-0.116
7,AAAAGACG,-0.0626
8,ACGTCTGC,-0.202
9,ACAAGTTA,0.0827
10,CTGGCAAG,-0.193
11,CAGTAGAG,-0.292
12,AGCTTATG,-0.234
13,ATTATCTC,0.199
14,TAAGGAAA,-0.125
15,CGGTTCGA,0.138
16,AGAGCCGG,0.207
17,ATTGTTAC,0.133
18,CAGTAAGG,-0.183
19,CTTAGCGC,0.13
20,AGAACGAC,-0.0237
21,AAACGAAT,-0.223
22,GGACCGCC,0.288
23,ACCGTGCT,0.0371
24,AGTATTGG,-0.266
25,CAGGTATG,-0.109

row,Sequence,PBM E-score
1,CGCTCGAC,-0.0458
2,CTCCTGAC,-0.0397
3,TCGGATCA,0.0854
4,TACCAATA,-0.158
5,GAGTTCAC,-0.129
6,AAAAAGCA,-0.203
7,AAAGGATG,-0.133
8,CCACATAG,0.0636
9,AAAGTCAC,-0.1
10,CCCCCTAA,-0.344
11,TCACTACA,-0.123
12,CTGCTAAA,0.00756
13,CGTGGCGC,0.199
14,AGTTACAT,-0.231
15,GCGGGACA,0.22
16,ATATCACA,-0.0666
17,AAACGTAA,-0.182
18,CAAGGGAC,-0.165
19,CACGGGTA,-0.0422
20,AGATGGTA,0.0213
21,AGCGTCTG,0.0201
22,TATTCAGA,-0.0956
23,ATCGTTCC,-0.0144
24,ACCCTTAG,-0.28
25,ATAGGTAC,-0.103

row,Sequence,PBM E-score
1,CTTTCGAA,-0.214
2,AGACCATG,-0.346
3,ACCTAGGG,0.09
4,AAACTAGA,-0.0984
5,CTCTACTC,-0.132
6,GTTAGAGA,-0.246
7,AATTCCCA,-0.261
8,AGAACTTA,-0.169
9,AACTTCAC,-0.293
10,CCCTTTCG,0.0776
11,AGTTCTAG,-0.0956
12,AGGCTAGC,-0.249
13,ATGTAACG,0.029
14,CAGCCAAG,-0.228
15,AACTGGGG,-0.131
16,ATACTACC,0.194
17,AAAGACAC,-0.042
18,CGTCAGCC,0.0539
19,ATAATACA,0.0704
20,CGAACAAC,-0.167
21,GATGGGCC,-0.0615
22,ATAGTCCG,0.338
23,GATGAACC,-0.00688
24,TAAGAGAA,-0.108
25,GATGGCTA,-0.167

row,Sequence,PBM E-score
1,TGAACACA,-0.207
2,AGTCATAG,-0.255
3,CCCGCATA,0.146
4,GCCGTACA,0.00971
5,AGAGAGGA,-0.163
6,ATTTCTGC,0.0353
7,CTTAAGCA,-0.0835
8,CCACGGGG,0.235
9,CCGCCAAC,0.315
10,GTGAGAAA,0.0523
11,AAAGAGTT,-0.263
12,GTTAGAAA,0.0727
13,AAACAACC,-0.122
14,CCCTGCCG,0.0368
15,GAGGAGGA,-0.307
16,AATTATTG,-0.174
17,ACCGGTAA,0.326
18,GTGTCGTA,-0.0721
19,ACCGTTAG,0.167
20,AGCCAATG,-0.293
21,AATATGAC,0.144
22,CCTATTAA,-0.11
23,CAGATAAC,-0.0135
24,ACTCGTGG,-0.251
25,CTCTCAGA,-0.301

row,Sequence,PBM E-score
1,CTTTTAAC,0.00212
2,GTGCGTCA,0.0663
3,CAACTAGC,-0.0524
4,GGTACGCA,0.00984
5,GTGCCGTA,0.234
6,CGGACAGA,0.266
7,CCCGGACA,0.315
8,ACACGCGA,-0.128
9,CTTATGTA,-0.0616
10,ATCCAGCC,-0.198
11,TAACGTAA,-0.0943
12,TAGATTCA,-0.207
13,AAAGTCCG,0.466
14,AGACTGAA,-0.0768
15,CCCGTTCG,0.307
16,ACCTCCAT,-0.0211
17,AACTTGGT,-0.0918
18,ATTCAGAG,0.0704
19,CCGAACTA,0.177
20,CACGAGAC,-0.0206
21,GTCGGTCA,0.259
22,CGGGTCAC,-0.0843
23,AAACGGTT,0.00494
24,ACGCCTAG,-0.0889
25,AGAATCGA,-0.28

row,Sequence,PBM E-score
1,CGTATCAG,0.0749
2,ACGCTCTG,-0.287
3,CCACCATA,-0.127
4,ATTTGATG,-0.00475
5,GTCTCCCA,-0.244
6,ACGTTAAC,-0.0959
7,CGAAGATA,0.0132
8,ACATTCAC,-0.144
9,CATCCTTA,-0.202
10,AGAAGGGG,-0.182
11,CCGCCTCA,0.299
12,CCTGCGCG,0.0663
13,CTCTTGGA,-0.085
14,CCAGGGAG,-0.319
15,ATTGACTA,-0.171
16,GGCCGTCA,0.155
17,GAAATCTC,-0.0474
18,GACTGTTA,-0.0185
19,TCTGCACA,-0.108
20,AAGCAGGC,-0.0888
21,CTGTTCCA,-0.313
22,GACGGCCC,0.211
